# Measurements as given in publication PMC4336329 (PLoS ONE, 2015).
# Hit rate of the full screen: of about 310,000 compounds, about 2,200 (0.71%) showed an effect of 50% or more. The effect is printed as a negative number. The list shows a part of the results.
# Target: human ether-à-go-go-related gene (hERG) potassium channel (human, UniProt Q12809)
# Experiment: primary screen, population patch clamp on CHO cells stably expressing hERG
# Sequence of human ether-à-go-go-related gene (hERG) potassium channel (Q12809 whole entry, looked up): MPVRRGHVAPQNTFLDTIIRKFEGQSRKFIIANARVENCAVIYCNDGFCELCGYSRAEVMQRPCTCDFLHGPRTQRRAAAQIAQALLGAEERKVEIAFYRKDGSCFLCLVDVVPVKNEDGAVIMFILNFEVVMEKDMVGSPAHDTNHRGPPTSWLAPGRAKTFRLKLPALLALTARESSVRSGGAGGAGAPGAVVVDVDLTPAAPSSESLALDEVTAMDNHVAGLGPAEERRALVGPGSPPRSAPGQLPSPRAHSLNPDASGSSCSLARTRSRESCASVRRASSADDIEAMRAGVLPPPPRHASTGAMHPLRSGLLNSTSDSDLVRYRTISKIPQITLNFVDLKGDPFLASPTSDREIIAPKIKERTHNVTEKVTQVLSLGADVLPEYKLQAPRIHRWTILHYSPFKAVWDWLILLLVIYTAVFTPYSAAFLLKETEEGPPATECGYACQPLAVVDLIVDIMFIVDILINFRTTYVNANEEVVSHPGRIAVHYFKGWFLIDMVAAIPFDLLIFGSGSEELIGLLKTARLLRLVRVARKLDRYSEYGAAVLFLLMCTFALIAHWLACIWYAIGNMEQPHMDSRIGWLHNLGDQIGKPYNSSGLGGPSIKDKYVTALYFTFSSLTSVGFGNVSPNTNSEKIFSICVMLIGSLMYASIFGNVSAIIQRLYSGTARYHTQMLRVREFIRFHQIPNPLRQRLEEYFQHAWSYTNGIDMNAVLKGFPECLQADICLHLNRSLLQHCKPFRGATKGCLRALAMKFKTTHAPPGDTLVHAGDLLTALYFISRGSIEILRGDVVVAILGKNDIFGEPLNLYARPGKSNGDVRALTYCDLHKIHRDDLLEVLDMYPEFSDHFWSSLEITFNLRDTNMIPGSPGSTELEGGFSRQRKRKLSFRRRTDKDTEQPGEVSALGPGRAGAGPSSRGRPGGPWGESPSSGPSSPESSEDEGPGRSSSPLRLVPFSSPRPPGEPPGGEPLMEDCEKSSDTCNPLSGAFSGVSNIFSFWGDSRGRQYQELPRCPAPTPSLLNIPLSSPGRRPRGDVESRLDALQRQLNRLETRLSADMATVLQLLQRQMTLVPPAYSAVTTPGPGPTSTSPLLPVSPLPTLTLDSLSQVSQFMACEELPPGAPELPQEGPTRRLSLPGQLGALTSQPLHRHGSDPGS
row,Structure (SMILES),"hERG current change (%, negative = inhibition) at 1uM"
1,Cc1cc(C)c(NC(=O)c2cccc3c2C(=O)N(C2CCCCC2)C3)c(C)c1,13.3%
2,O=C(CSc1nnc(SCc2ccccc2)s1)N/N=C/c1c(Cl)cccc1Cl,-3.86%
3,Cc1ccc2cc(CN(CC3CCCO3)S(=O)(=O)c3ccc4c(c3)OCCO4)c(=O)[nH]c2c1C (centres unmarked),7.49%
4,Cc1ccc(SCC(=O)Nc2ccccc2C(=O)O)cc1,14.4%
5,Cc1cccc2cc(CN(CC(C)C)S(=O)(=O)c3ccccc3)c(=O)[nH]c12,10.5%
6,CCCC(=O)N1CCN(c2ccc(NC(=O)c3ccc(OCC)c([N+](=O)[O-])c3)cc2)CC1,7.77%
7,Br.C=CCN1C(c2ccc(Br)cc2)=CS/C1=C(/C#N)c1nnc(N2CCOCC2)n1-c1ccccc1,6.23%
8,CCN(CC)C(=O)CSc1nc2ccsc2c(=O)n1CCCC(=O)NCCc1ccc(S(N)(=O)=O)cc1,21%
9,Cc1ccccc1-c1nc(CSc2nc3c(c(=O)[nH]2)CCC3)c(C)o1,11.6%
10,O=C(Nc1cccc(C(=O)O)c1)Nc1ccccc1Cl,17.1%
11,CCOC(=O)C1CCCN(C(=O)CSc2ccccc2)C1 (centres unmarked),8.01%
12,CCCNC(=O)c1n[nH]c(=O)c2ccccc12,14.3%
13,CC1CCN(C(=O)CN(Cc2ccc(F)cc2)S(C)(=O)=O)CC1,10.3%
14,C=CCn1c(SCC(=O)NC2CC2)nnc1-c1cccc(OC)c1,14.6%
15,O=c1c(-c2nc3ccccc3s2)cccn1Cc1ccc(Cl)c(Cl)c1,5.54%
16,COc1ccc(S(=O)(=O)N2CCN(Cc3ccccc3)CC2)cc1OC,12.2%
17,O=C1c2ccccc2CCC12N=NCC2c1ccc(Br)cc1 (centres unmarked),3.38%
18,CCCCSc1nnc(CSc2ncccn2)n1C,6.68%
19,COc1ccc(NC(=O)CCNS(=O)(=O)c2cccc3nsnc23)cc1OC,-1.41%

row,Structure (SMILES),"hERG current change (%, negative = inhibition) at 1uM"
1,CCC1Oc2ccccc2N(CC(=O)NCCCN2CCN(c3ccc(OC)cc3)CC2)C1=O (centres unmarked),-7.76%
2,Cc1ccccc1C(=O)Nc1nc2c(C)csc2c(=O)s1,18.3%
3,O=C(N/N=C/C1C(=O)NC(=S)N(c2ccccc2)C1=O)c1cc(Br)c(O)c(Br)c1 (centres unmarked),9.54%
4,Cc1cccc(NC(=S)NC(=O)c2ccco2)c1C,0.151%
5,CC(C)NC(=O)c1sc2nc3c(c(-c4cccs4)c2c1N)CN(C)CC3,-5.34%
6,COc1cc(CC(=O)NCc2ccccn2)cc(OC)c1OC,3.9%
7,Cc1cccc(NC(=S)/N=C(\N)Nc2nc(C)c3ccccc3n2)c1,2.75%
8,COc1cccc(-n2c(C)cc(/C=C3/C(=N)N4C(=NC3=O)SN=C4S(C)(=O)=O)c2C)c1,10.3%
9,CN1C(=O)c2ccccc2NC(=O)[C@]12O[C@@H]2c1ccccc1,6.63%
10,Cn1nnc2cc(C(=O)Nc3ccccc3F)ccc21,23.9%
11,COC(=O)c1[nH]c2cccc(OC)c2c1NC(=O)CN1CC2(C)CC1CC(C)(C)C2 (centres unmarked),7.5%
12,COc1ccccc1C(O)(C(=O)NN(C)c1ccccc1)c1ccccc1OC,13.8%
13,CSc1ccccc1C(=O)NC1CCCN(Cc2ccccc2F)C1 (centres unmarked),5.27%
14,CCOc1cc(C(=S)N2CCCC2)ccc1OC,9.92%
15,O=C(NC1CCCCCC1)c1ccc2c(=O)n3c(nc2c1)CCCCC3,-6.08%
16,CCCN1CCc2nc(SCC(=O)Nc3ccc(C)c(Cl)c3)[nH]c(=O)c2C1,12.9%
17,CC(C)NC(=O)NC(=O)COC(=O)c1ccc(S(=O)(=O)Nc2ccccc2)cc1,4.49%
18,O=C(O)CCC(=O)N1CCc2cc(S(=O)(=O)N3CCN(c4ccc(F)cc4)CC3)ccc21,10.2%
19,COCCSc1ccccc1C(=O)Nc1cc(C)on1,3.19%

row,Structure (SMILES),"hERG current change (%, negative = inhibition) at 1uM"
1,COc1ccccc1-c1n[nH]c(=S)n1N,6.71%
2,COc1ccccc1C(=O)COC(=O)Cn1nc(C)c([N+](=O)[O-])c1C,7.96%
3,COc1cccc(-c2nnc(SCCOc3ccc4c(C)cc(=O)oc4c3)o2)c1,10.4%
4,CCN(CC)C(=O)CSc1nc(O)cc(=O)n1-c1ccccc1OC,4.29%
5,CCOC(=O)c1cnn(-c2ncnc3sc4c(c23)CCC4)c1N,8.48%
6,COc1ccc(C)cc1NC(=O)CN(C)S(=O)(=O)c1ccc2c(c1)CC(C)N2C(C)=O (centres unmarked),2.46%
7,O=C(N/N=C/c1ccsc1)c1cc2ccccc2o1,11.9%
8,O=C(Nc1nc(COc2ccccc2)cs1)C1CCC1,-2.43%
9,CCN(C(=O)COC(=O)c1cc(-c2cccs2)nc2ccccc12)C1CCS(=O)(=O)C1 (centres unmarked),-6.23%
10,Cc1ccc(/C=N/n2c(-c3cccc(Cl)c3)n[nH]c2=S)o1,9.44%
11,Cc1ccc(C)c(OCC(=O)Nc2cc(C(=O)O)cc(C(=O)O)c2)c1,11%
12,CCOc1cccc(-c2c(C(=O)N/N=C/c3ccc(Br)cc3)nnn2-c2nonc2N)c1,9.58%
13,COc1ccc(NC(=S)NCCCn2ccnc2)cc1,10.2%
14,O=C(Nc1ccc(F)cc1F)N1CCCCC1c1cccnc1 (centres unmarked),1.11%
15,N#CC1=C2SCN(Cc3ccccc3)CN2C(=O)CC1c1ccc2c(c1)OCO2 (centres unmarked),-1.92%
16,CCN1C(=O)/C(=C2\SC(=S)N(NC(=O)c3cccnc3)C2=O)c2ccccc21,9.91%
17,Cc1noc(C)c1NC(=O)N1CCN(Cc2ccccc2)CC1,11.8%
18,O=S(=O)(c1cccc(C(F)(F)F)c1)N(CCCN1CCOCC1)Cc1cccs1,-8.41%
